These results are taken from article PMC4336329 (PLoS ONE, 2015).

Screen size: about 310,000 compounds; about 14,000 (4.5%) showed an effect of 50% or more. Effects have a minus sign here. The list shows a part of the results.
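Note: peak tail current of the secondary pulse compared with the same well before compound.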

Chain of human ether-à-go-go-related gene (hERG) potassium channel (Q12809 whole entry, looked up): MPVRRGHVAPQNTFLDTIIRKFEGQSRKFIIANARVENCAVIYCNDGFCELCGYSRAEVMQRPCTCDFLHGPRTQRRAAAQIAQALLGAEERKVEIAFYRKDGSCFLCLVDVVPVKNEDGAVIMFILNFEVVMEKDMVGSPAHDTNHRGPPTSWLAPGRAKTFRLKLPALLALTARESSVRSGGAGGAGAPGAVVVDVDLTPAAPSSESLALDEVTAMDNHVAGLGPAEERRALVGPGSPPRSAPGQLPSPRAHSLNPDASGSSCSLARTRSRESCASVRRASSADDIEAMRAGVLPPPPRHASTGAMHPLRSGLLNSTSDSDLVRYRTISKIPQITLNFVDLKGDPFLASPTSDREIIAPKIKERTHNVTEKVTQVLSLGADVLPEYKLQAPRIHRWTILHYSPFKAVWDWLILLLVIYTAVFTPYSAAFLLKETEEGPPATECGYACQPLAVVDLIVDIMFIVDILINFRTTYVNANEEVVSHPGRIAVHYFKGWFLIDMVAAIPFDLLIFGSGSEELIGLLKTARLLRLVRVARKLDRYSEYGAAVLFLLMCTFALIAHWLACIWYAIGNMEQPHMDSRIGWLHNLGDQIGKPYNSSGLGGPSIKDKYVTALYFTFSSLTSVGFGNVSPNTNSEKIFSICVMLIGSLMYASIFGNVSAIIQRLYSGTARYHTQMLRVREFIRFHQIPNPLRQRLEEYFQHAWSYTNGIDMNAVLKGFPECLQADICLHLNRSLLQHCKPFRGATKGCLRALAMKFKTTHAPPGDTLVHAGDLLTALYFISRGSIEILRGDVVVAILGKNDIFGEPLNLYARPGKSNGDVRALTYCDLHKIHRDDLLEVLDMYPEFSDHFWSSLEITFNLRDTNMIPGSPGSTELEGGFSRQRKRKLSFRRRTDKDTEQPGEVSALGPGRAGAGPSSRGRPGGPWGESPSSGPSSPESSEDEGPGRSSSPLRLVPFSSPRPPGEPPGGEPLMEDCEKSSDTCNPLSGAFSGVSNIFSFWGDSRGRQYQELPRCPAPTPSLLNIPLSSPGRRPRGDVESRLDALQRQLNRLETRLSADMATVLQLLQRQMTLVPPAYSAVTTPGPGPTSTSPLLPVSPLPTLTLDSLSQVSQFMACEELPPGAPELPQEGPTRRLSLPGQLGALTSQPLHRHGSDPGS

This assay concerns the target human ether-à-go-go-related gene (hERG) potassium channel (human, UniProt Q12809). Nature of the assay: primary screen, population patch clamp on CHO cells stably expressing hERG.
`C[N+]1(CC(=O)OCCCc2ccccc2)CCCC1.[I-]`: the “hERG current change (%, negative = inhibition) at 10uM” value amounted to 15.6%. The value for `CCOc1ccccc1C(=O)Nc1nncs1` was 5.31%; that for `COc1ccccc1NS(=O)(=O)c1ccc(C(=O)NCCCn2ccnc2)cc1` was 7.77%. The same measure for `O=C(CSc1nnc(-c2ccc(OC(F)F)cc2)o1)NCc1cccs1`: -40.7%; for `COc1ccc(N2CC(C)Cn3c2nc2c3c(=O)n(Cc3ccccc3F)c(=O)n2C)c(OC)c1` (stereo not shown): -47.4%. The value for `COc1cc(NC(=O)c2ccco2)c(C(=O)O)cc1OC` was -6.08%; that for `Cc1cc(CNC(=O)COc2ccc(C)c(C)c2)c2ccccc2n1` was 2.15%. In the case of `O=C(Nc1ccc[n+](CC(=O)c2cccc3ccccc23)c1)c1ccccc1.[Br-]`, the “hERG current change (%, negative = inhibition) at 10uM” value is -58.9%. With `O=C(OCCN1C(=O)CCC1=O)c1ccc(S(=O)(=O)N2CCCCC2)cc1`, the “hERG current change (%, negative = inhibition) at 10uM” value was 4.21%. The same measure for `COc1cccc(-c2nn(-c3ccc(C)cc3)cc2C(=O)NCC2CCCO2)c1` (stereo not shown): -62.2%; for `CC(C)NC(=S)N/N=C/c1cccs1`: 7.11%; for `CC1(c2ccccc2)NC(=O)N(CC(=O)Nc2ccc([N+](=O)[O-])cc2)C1=O` (stereo not shown): -27.3%. With `COc1ccsc1C(=O)N1CCN(Cc2ccc3c(c2)OCO3)CC1`, the “hERG current change (%, negative = inhibition) at 10uM” value was -16.5%. Regarding `COc1cccc(N2CN(C3CCCCC3)CNC2=S)c1`, the “hERG current change (%, negative = inhibition) at 10uM” value was 14.7%.

With `N#Cc1sc(=O)[nH]c1Cl`, the “hERG current change (%, negative = inhibition) at 10uM” value came out at 11.8%.

For `CC(=O)Nc1ccc(Sc2ncccc2C(=O)Nc2cc(Cl)cc(Cl)c2)cn1`, the “hERG current change (%, negative = inhibition) at 10uM” value is listed as 26.7%.

Regarding `CN1CCN(c2nc(NCCOC34CC5CC(CC(C5)C3)C4)nc(OCC(F)(F)F)n2)CC1`, the “hERG current change (%, negative = inhibition) at 10uM” value is given as -60.8%. The same measure for `CCOc1ccccc1NC(=O)CN1CCc2ccccc2C1`: -18.3%; for `COc1ccc(-n2nc(C(=O)NCC(=O)N3CCN(c4ccccc4)CC3)c3ccccc3c2=O)c(OC)c1`: 2.3%. In the case of `CCOc1ccccc1Nc1ccnc2cc(Cl)ccc12`, the “hERG current change (%, negative = inhibition) at 10uM” value is listed as -57.2%. The value for `CC(=O)NC12CC3CC(C1)CC(C(=O)Nc1nc4ccc(F)cc4s1)(C3)C2` was -56.9%. The same measure for `Cc1cc(C)n2nc(C(=O)Oc3ccc4c(c3)OCO4)nc2n1`: 8.26%.

`CC(C)COC(=O)/C(C#N)=C/c1c[nH]c2ccccc12`: the “hERG current change (%, negative = inhibition) at 10uM” value is on record as 3.29%. Consider `O=C(c1cn(-c2ccccc2)nc1-c1ccc(F)cc1)N1CCOCC1`, for which the “hERG current change (%, negative = inhibition) at 10uM” value is reported as -12.4%. The value for `COc1ccccc1/C=C/C=N/NC(=O)c1ccc(=O)n(C)c1` was -7.06%. With `Cc1cc(C)c(C)c(S(=O)(=O)NCC(=O)Nc2ccc(F)cc2)c1C`, the “hERG current change (%, negative = inhibition) at 10uM” value turned out to be 14.6%. For the molecule `COc1ccccc1CNC(=O)COC(=O)c1ccc(N2CCCC2=O)cc1`, the “hERG current change (%, negative = inhibition) at 10uM” value is on record as 15.6%. The value for `Cc1ccc(N(CC(=O)N2CCN(c3ccccc3F)CC2)S(=O)(=O)c2c(C)noc2C)cc1` was 20%; that for `Cc1ccc(S(=O)(=O)N(c2ccc(Br)cc2)C2C=CS(=O)(=O)C2)cc1` (stereo not shown) was 13.6%.

`O=C1CC(/C=C/c2ccc(Cl)cc2)=Nc2ccccc2N1`: the “hERG current change (%, negative = inhibition) at 10uM” value is 11.3%. Consider `c1ccc(CSc2ncn(-c3ccccc3)n2)cc1`, for which the “hERG current change (%, negative = inhibition) at 10uM” value is -8.38%. The same measure for `CCC(=O)N1CCN(CCN=CC2=C(O)CC(c3cccs3)CC2=O)CC1` (stereo not shown): -9.43%; for `O=C(Cc1ccccc1)Nc1nonc1NC(=O)c1ccccc1`: 17.1%.

Consider `CCSc1nnc(NC(=O)[C@@H](NC(=O)c2ccccc2)C(C)C)s1`, for which the “hERG current change (%, negative = inhibition) at 10uM” value is recorded as 10.3%. The same measure for `CCCCOc1ccc(/C(O)=C2/C(=O)C(=O)N(CCCOC)C2c2ccncc2)cc1` (stereo not shown): 18.2%; for `CN1c2ccsc2/C(=N/NC(=O)c2c(F)cccc2F)CS1(=O)=O`: 4.31%; for `O/N=C(/CCc1ccccc1)c1ccc2c(c1)OCCO2`: -13.2%.

For `CC(=O)N1CCN(C(=O)c2oc3ccccc3c2C)CC1`, the “hERG current change (%, negative = inhibition) at 10uM” value stood at 8.84%. The value for `O=C(COC(=O)c1ccccc1C(=O)c1ccc(Cl)cc1)NCCc1ccccc1` was -18.7%; that for `Cc1cc(C)c2nc(SC3CCOC3=O)cc(C)c2c1` (stereo not shown) was 4.23%. The same measure for `Cl.Clc1ccc(C2=NNC(=NCC3CCCO3)SC2)cc1` (stereo not shown): 0.854%; for `CC1Cc2ccccc2N1C(=O)CN1CCCCC1.Cl` (stereo not shown): 10.9%; for `Cc1cc(Nc2ccc(Cl)cc2)nc(N2CCOCC2)n1`: 11.5%. The same measure for `C[C@@H](NC(=O)c1nc[nH]c1C(=O)NCc1ccc(CNC(=O)OC(C)(C)C)cc1)c1ccccc1`: 6.47%; for `COc1ccccc1NC(=O)C1=C(C)NC(=O)NC1c1cccc(OC)c1OC` (stereo not shown): 7.41%; for `Oc1nc(Nc2ccccc2)sc1/C=C1\C=Nc2ccccc21`: -1.37%. Consider `COC(=O)C1CCN(c2cnccn2)CC1`, for which the “hERG current change (%, negative = inhibition) at 10uM” value is listed as 12.2%.

Consider `CC1CCC(NC(=O)CNC(=O)Cc2cccc3ccccc23)CC1` (stereo not shown), for which the “hERG current change (%, negative = inhibition) at 10uM” value came to 9.05%.

For the molecule `CCCC1=Nc2cc(C(=O)NCCN3CCOCC3)ccc2Sc2ccc(C)cc21`, the “hERG current change (%, negative = inhibition) at 10uM” value is reported as -34.3%.

As for `COc1cccc(C(=O)SC2=NCCS2)c1`, the “hERG current change (%, negative = inhibition) at 10uM” value is -12.5%. The same measure for `Cn1c(CN2CCOCC2)nnc1SCc1ccc(C#N)cc1`: 17.5%; for `O=C(O)CSC1CC(=O)N(c2ccc(Cl)c(Cl)c2)C1=O` (stereo not shown): 9.61%.

Regarding `Cc1nn(C2CCS(=O)(=O)C2)c(Cl)c1/C=C/C(=O)OCC(=O)c1cc(C)n(-c2ccc(F)cc2)c1C` (stereo not shown), the “hERG current change (%, negative = inhibition) at 10uM” value stood at 4.11%. The same measure for `Cc1cccc(OCc2cc(-c3ccccc3)no2)c1C`: 19.2%. The value for `Clc1ccc(NCn2cncn2)nc1` was 6.58%. The value for `CN(C)c1ccc(NC(=O)CN2CCC(N3CCCCC3)CC2)cc1.O=C(O)C(=O)O` was 9.68%. As to `Cc1c(Cl)cccc1NS(=O)(=O)c1c(C(=O)N2CCOCC2)c(C)n(C)c1C`, the “hERG current change (%, negative = inhibition) at 10uM” value is -2.55%. The same measure for `Cn1c(SCC(=O)Nc2ccc(F)cc2)nc2c([nH]c3ccccc32)c1=O`: -14.1%.
